In all, about 150,000 compounds went through this assay and about 540 (0.36%) showed an effect of 50% or more. The list shows a part of the results.
Each compound was assayed on Plasmodium falciparum (assay: Primary screen in NF54 nanoGlo assay, in single point, at 2uM, 72h; a lower Z score goes with more inhibition). Details: timepoint 72 hour.
Type: functional, Erythrocyte

Compound	% Inhibition	Z score
CC(C)c1ccc(N2C(=O)CN(CCCc3ccccc3)[C@H]3CS(=O)(=O)C[C@H]32)cc1	-7%	0.98
O=C(N[C@@H](CC1CCCCC1)c1ncccn1)c1ccncc1F	-19%	1.95
CC1=C(CCN[C@@H]2C[C@@H](C(=O)NC(C)C)N(C(C)C)C2)C(C)(C)CCC1	-8%	1
Cc1ccc2cc1Oc1cccc(c1)CO[C@H]1CCN(C(=O)CC3CC3)C[C@H]1NC(=O)CN(C)C2=O	2%	-0.45
O=C(c1cc(-c2ccco2)[nH]n1)N1CCCN(C[C@H]2CCCO2)CC1	-4%	0.42
CCCC[C@H](CC)C(=O)N1CCN(c2nc(Cc3ccccc3)nc3c2c(C)nn3-c2ccccc2)CC1	-13%	1.88
CC(=O)N1c2ccccc2N=C(O)C[C@@H]1C	-2%	0.24
Cn1c(N2CCCCO2)c(C#N)c(=O)n(C)c1=O	-9%	0.9
CC(C)(C)[C@H](NCc1cccnc1C(F)(F)F)C(N)=O	6%	-0.69
FC(F)(F)c1ccnc(Nc2ccc3c(c2)OCO3)n1	-4%	0.56
CCOCCCNC(=O)COc1cc(C)c2c(-c3ccccc3)nn(-c3ccccc3)c2n1	-15%	2.18
COCc1ncc(C(=O)N2CC(C)C(C)C2)c(N)n1 (centres undefined)	-1%	0.13
CN(C)c1ccc(C(=O)N2CCC[C@H](n3cc(-c4nc(C5CC5)no4)nn3)C2)cc1	-9%	1
Cc1ccc(NC(=O)c2ccc(Oc3ccnc(-c4ccc(F)cc4)n3)cc2)cc1	4%	-0.52
CCN(c1ccc(Br)cc1Cl)S(C)(=O)=O	-8%	1.27
COc1ccc(CN2C(=O)COC[C@H]2C(=O)N2CCN(C3CCCCC3)CC2)c(OC)c1	-10%	1.65
c1cnc2c(-n3nc(C4CCOCC4)nc3[C@H]3CCCN3)cccc2c1	13%	-1.65
O=C(Nc1ccnn1C1CCCCC1)c1cccnc1	-6%	0.72
O=c1ncn(Cc2ccc3c(c2)OCO3)cc1-c1ncc(C(F)(F)F)cc1Cl	5%	-0.75
CCn1cc(-c2cccc(C(=O)N[C@@H](C)c3nc(C)sc3C)c2)cn1	-4%	0.85
COc1ccc(O[C@H]2COCCN(S(=O)(=O)c3ccc(F)cc3)C2)cc1	-7%	1.03
CCS(=O)(=O)NCCCNc1nnc(-c2ccc(O)cc2)s1	-19%	2.42

From ChEMBL document CHEMBL4888484, “Replenishing the malaria drug discovery pipeline: Screening and hit evaluation of the MMV Hit Generation Library 1 (HGL1) against asexual blood stage Plasmodium falciparum ,using a nano luciferase reporter read-out” (2022)
